Experimental data from patent publication US20200385445A1 (published 2020).

Target: CPA.7.048
Assay: SPR

Kd: 19 nM
B1: human PVRIG-Fc (Fc fusion)
chain: TPEVWVQVRMEATELSSFTIRCGFLGSGSISLVTVSWGGPNGAGGTTLAVLHPERGIRQWAPARQARWETQSSISLILEGSGASSPCANTTFCCKFASFPEGSWEACGSLPPSSDPGLSAPPTPAPILRAD[omitted - human IgG1 Fc with changes]
